# Some of the results follow. At the low end of the ranking, values are background and their order means little.
# Biological target: GST-SBP-SLBP (stem-loop binding protein) (UniProt Q14493)
# Experiment: targeted RNA Bind-n-Seq;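 further: DESeq read counts versus GST-SBP nonspecific binding control pulldown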
# Settings: RBNS binding buffer: 25 mM Tris pH 7.5, 150 mM KCl, 3 mM MgCl2, 0.1% Tween, 0.5 mg/mL BSA, 1 mM DTT; 27 nM protein, 750 pM RNA pool; temperature not stated; high values mean tight binding
row,Sequence,binding signal (log2 fold change)
1,GGUCACGUCUCAAUCAACUCAUCCCCCAGGGAAAUCCCUGGUAUUUUCAACAGCUCGCAGUCAAG,-0.0866
2,GGUCACGUCUCAAUCAACUCAUCUUCAGGAGUUUUCUCCUGUUUAGUCAACAGCUCGCAGUCAAG,0.209
3,GGUCACGUCUCAAUCAACUCUAUUCCAGGAGUUUACUCCUGCAUUUUCAACAGCUCGCAGUCAAG,0.131
4,GGUCACGUCUCAAUCAACUCAGUUUCAGGAGUUUACUCCUGCUAUCUCAACAGCUCGCAGUCAAG,0.111
5,GGUCACGUCUCAAUCAACUCAGUUUCAGGAGUUUUCUCCUGUUUAUUCAACAGCUCGCAGUCAAG,0.0522
6,GGUCACGUCUCAAUCAACUCUAUCUCCAGGGAAAGCCCUGGCAAUCUCAACAGCUCGCAGUCAAG,0.0282
7,GGUCACGUCUCAAUCAACUCCAUAGAGGGGGGGAAAACCCCUUUGCCCUCGUCAUCAACAGCUCGCAGUCAAG,0.00701
8,GGUCACGUCUCAAUCAACUCUUUCGCCAGGGAAAACCCUGGGUAUCUCAACAGCUCGCAGUCAAG,-0.21
9,GGUCACGUCUCAAUCAACUCAUUCCCAGGAGUUUGCUCCUGCUUUUUCAACAGCUCGCAGUCAAG,0.176
10,GGUCACGUCUCAAUCAACUCAUCGUCCAGGGAAAACCCUGGUUAUUUCAACAGCUCGCAGUCAAG,-0.186
11,GGUCACGUCUCAAUCAACUCAUCUUCCAGGGAAAACCCUGGUAUUCUCAACAGCUCGCAGUCAAG,0.229
12,GGUCACGUCUCAAUCAACUCAAUCGAGGGGGGGAAAACCCCUUUACCCUCUCAAUCAACAGCUCGCAGUCAAG,-0.242
13,GGUCACGUCUCAAUCAACUCAUUCCCCAGGGAAACCCCUGGUUAACUCAACAGCUCGCAGUCAAG,0.0338
14,GGUCACGUCUCAAUCAACUCAUCUUCCAGGGAAACCCCUGGCUUAUUCAACAGCUCGCAGUCAAG,0.136
15,GGUCACGUCUCAAUCAACUCUAUCUCCAGGGAAAACCCUGGUUUACUCAACAGCUCGCAGUCAAG,0.012
16,GGUCACGUCUCAAUCAACUCUAUUCCCAGGGAAAACCCUGGCUUUUUCAACAGCUCGCAGUCAAG,0.126
17,GGUCACGUCUCAAUCAACUCUUCUUCAGGAGUUUCCUCCUGCUUUCUCAACAGCUCGCAGUCAAG,0.0767
18,GGUCACGUCUCAAUCAACUCAUUUUCAGGAGUUUGCUCCUGCAAUCUCAACAGCUCGCAGUCAAG,-0.0115
19,GGUCACGUCUCAAUCAACUCAAUCCCCAGGGAAAACCCUGGUAUUUUCAACAGCUCGCAGUCAAG,-0.245
20,GGUCACGUCUCAAUCAACUCAACUCCCAGGGAAAUCCCUGGUUAUCUCAACAGCUCGCAGUCAAG,0.334
21,GGUCACGUCUCAAUCAACUCUUUUUCCAGGGAAAACCCUGGUUUUCUCAACAGCUCGCAGUCAAG,0.169
22,GGUCACGUCUCAAUCAACUCUAUCCCAGGAGUUUCCUCCUGUAAAUUCAACAGCUCGCAGUCAAG,-0.146
23,GGUCACGUCUCAAUCAACUCUUUUUCAGGAGUUUACUCCUGUAUUUUCAACAGCUCGCAGUCAAG,0.0314
24,GGUCACGUCUCAAUCAACUCAUCUCCAGGAGUUUCCUCCUGUUUAGUCAACAGCUCGCAGUCAAG,-0.0683

row,Sequence,binding signal (log2 fold change)
1,GGUCACGUCUCAAUCAACUCAUUUUCCAGGGAAAGCCCUGGUUAUCUCAACAGCUCGCAGUCAAG,0.0553
2,GGUCACGUCUCAAUCAACUCAAUCCCCAGGGAAACCCCUGGUAUUUUCAACAGCUCGCAGUCAAG,-0.45
3,GGUCACGUCUCAAUCAACUCAAUUUCAGGAGUUUACUCCUGCUUUUUCAACAGCUCGCAGUCAAG,-0.13
4,GGUCACGUCUCAAUCAACUCACAAGAGGGGGGGAAAACCCCUUUACCCUCAUUAUCAACAGCUCGCAGUCAAG,-0.0578
5,GGUCACGUCUCAAUCAACUCUAAAGAGGGGGGGAAAACCCCUUUACCCUCCGCAUCAACAGCUCGCAGUCAAG,-0.13
6,GGUCACGUCUCAAUCAACUCUAUCUCAGGAGUUUUCUCCUGCAUACUCAACAGCUCGCAGUCAAG,-0.0729
7,GGUCACGUCUCAAUCAACUCAAUCCCCAGGGAAAACCCUGGCUAUUUCAACAGCUCGCAGUCAAG,0.338
8,GGUCACGUCUCAAUCAACUCUUCCUCCAGGGAAAGCCCUGGCUAUCUCAACAGCUCGCAGUCAAG,-0.147
9,GGUCACGUCUCAAUCAACUCAAUUCCAGGAGUUUACUCCUGCUUUCUCAACAGCUCGCAGUCAAG,-0.152
10,GGUCACGUCUCAAUCAACUCAUCGCCAGGAGUUUACUCCUGUUAUCUCAACAGCUCGCAGUCAAG,0.0944
11,GGUCACGUCUCAAUCAACUCAAUAGAGGGGGGGAAAACCCCUUUACCCUCAUCAUCAACAGCUCGCAGUCAAG,0.0863
12,GGUCACGUCUCAAUCAACUCAAACGAGGGGGGGAAAACCCCUUUACCCUCCACAUCAACAGCUCGCAGUCAAG,-0.129
13,GGUCACGUCUCAAUCAACUCUCACGAGGGGGGGAAAACCCCUUUACCCUCUUACUCAACAGCUCGCAGUCAAG,0.346
14,GGUCACGUCUCAAUCAACUCUUCCCCCAGGGAAAGCCCUGGCAAUUUCAACAGCUCGCAGUCAAG,0.0536
15,GGUCACGUCUCAAUCAACUCUAUCCCCAGGGAAAUCCCUGGCUUAUUCAACAGCUCGCAGUCAAG,-0.323
16,GGUCACGUCUCAAUCAACUCUUCGUCCAGGGAAACCCCUGGUUAUCUCAACAGCUCGCAGUCAAG,-0.418
17,GGUCACGUCUCAAUCAACUCUUCAGAGGGGGGGAAAACCCCUUUGCCCUCAUAAUCAACAGCUCGCAGUCAAG,-0.144
18,GGUCACGUCUCAAUCAACUCUAUCGAGGGGGGGAAAACCCCUUUACCCUCUUUUUCAACAGCUCGCAGUCAAG,-0.0455
19,GGUCACGUCUCAAUCAACUCCAACGAGGGGGGGAAAACCCCUUUACCCUCACCAUCAACAGCUCGCAGUCAAG,-0.229
20,GGUCACGUCUCAAUCAACUCAAUUUCAGGAGUUUCCUCCUGCUAUUUCAACAGCUCGCAGUCAAG,0.0302
21,GGUCACGUCUCAAUCAACUCAACUCCAGGAGUUUGCUCCUGUAUAUUCAACAGCUCGCAGUCAAG,-0.0611
22,GGUCACGUCUCAAUCAACUCUCCCGAGGGGGGGAAAACCCCUUUACCCUCAACCUCAACAGCUCGCAGUCAAG,-0.397
23,GGUCACGUCUCAAUCAACUCUAUCCCAGGAGUUUCCUCCUGUUUAUUCAACAGCUCGCAGUCAAG,-0.0243
